Experimental data taken from PubChem BioAssay AID1508624 (National Center for Advancing Translational Sciences (NCATS), 2021).
The campaign covered roughly 48,000 compounds. About 120 (0.25%) were called active. Roughly 4% stayed inconclusive and do not appear here. The call rests on the fitted dose curve; in most records, active means well fitted activation curve with a large enough effect; inconclusive means small, poorly fitted or top-dose-only effect, or another doubt; inactive means no such curve, though single readings can be large or run the other way. The list shows a part of the results.

Experiment: Primary qHTS for Identification of Small Molecule Activators of Huntingtin-Antisense Promoter Activity; further: nearly all actives have a fitted effect of over 55% in size
Conditions: HEK293 HTT-AS promoter firefly luciferase reporter, 24 h; series mostly up to 57.5 µM; activity change, positive = activation: at the top concentration
Summary of the method: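 HEK293 luciferase promoter-reporter cells (2,500/well) plated 24 h, then compounds added at up to 57.5 uM final for 24 h at 37 °C. Firefly luminescence by Dual-Glo, normalized to vehicle (0%) and zero RLU (-100%).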

Activity change, positive = activation, inactive:
Oc1ccc(Cl)cc1Cc1cc(Cl)ccc1O -94.1%, COc1ccc(S(=O)(=O)N2CCC(C(=O)Nc3ccc(Oc4ccccc4)cc3)CC2)cc1 -18%, COc1cccc(-n2c(=O)c3sc4ccccc4c3n(CC(=O)NC3CCCCC3)c2=O)c1 -3.85%, Cc1c(NC(=O)c2ccc(-c3cccc([N+](=O)[O-])c3)o2)cccc1-c1nc2cc(Cl)ccc2o1 22.3%, Cn1c(=O)oc2cc(S(=O)(=O)NCCC(=O)Nc3ccc(F)cc3F)ccc21 17.4%, CCOC(=O)c1cc2c(=O)n3ccccc3nc2n(CCOC)c1=NC(=O)c1c(-c2ccccc2Cl)noc1C 5.06%, Cc1cc(OCC(=O)Nc2ncn[nH]2)ccc1Cl 4.21%, Cc1ccc(S(=O)(=O)N(CC(=O)Nc2ccc3c(c2)OCO3)c2cc(Cl)cc(Cl)c2)cc1 13.9% [at 11.5 µM, percent change from vehicle, -100% = no light], CCN(CC)S(=O)(=O)c1ccc(OC)c(-n2cnnn2)c1 2.69%, O=C(NCCC1=CCCCC1)c1ccc2c(c1)N(Cc1cccc(Cl)c1)C(=O)c1ccccc1S2=O (stereo not drawn) -0.841%, CCCCC(=O)NC1CC(=O)N(c2ccc3c(c2)OCCO3)C1 (stereo not drawn) -14.5%, COc1ccc(CNC(=O)Cn2c(=O)nc(-c3ccccc3)c3ccccc32)cc1OC -67.9%, CC(C)CCNC(=O)Cc1ccc(NC(=O)N2CCCCc3ccccc32)cc1 -0.61%, CC1=C(c2ccc(C)c(C)c2)S(=O)(=O)NC1=NCc1ccccc1Cl -2.91%, Cc1cc(C)c(NC(=O)c2sc3nc(C)cc(C)c3c2NC(=O)c2ccccc2)c(C)c1 -12.6%, CCOC(=O)c1c(C)[nH]c(C)c1S(=O)(=O)N1CCC(C(=O)Nc2cc(Cl)ccc2OC)CC1 -8.26%, CCOc1ccc(CCNC(=O)c2cn(C)c3ccc(S(=O)(=O)N4CCCCC4)cc3c2=O)cc1OCC 5.78%, COc1ccccc1C(=O)Nc1cccc(C(=O)OCc2cc(=O)n3cc(C)sc3n2)c1 -10.9%, CCc1nc2nc(C)c(NS(=O)(=O)c3ccc(C(C)(C)C)cc3)c(=O)n2[nH]1 -13.3%, O=C(CCn1cnc2ccccc2c1=O)NCc1ccccc1Cl 9.09% [at 11.5 µM, percent change from vehicle, -100% = no light], O=C(CNC(=O)c1ccc(F)cc1)OCc1cc(=O)n2nc(C3CC3)sc2n1 -13.1%, COc1ccc(-c2nc(C)c(CCNS(=O)(=O)c3cc(Cl)ccc3Cl)s2)cc1 -23.6%, CCOC(=O)c1sc2ncn(CC(=O)Nc3ccc(OCC)cc3)c(=O)c2c1C -3.22%, CCc1nn2c(=O)cc(COC(=O)COc3ccc(OC)cc3)nc2s1 3.07%, CCC(=O)N1c2ccccc2CC1C(=O)NCCc1ccc(OC)c(OC)c1 (stereo not drawn) -16.1%, Cc1c(C(=O)Nc2cccc(C(F)(F)F)c2)oc2ccc3c(c12)C(=O)CC(C)(C)O3 23.6%, Cc1nc2cccnc2n1-c1cccc(C(=O)N2CCN(c3cccc(Cl)c3)CC2)c1 -31.3%, COc1ccc(-c2nnc(SCC(=O)NCCc3ccc(OC)c(OC)c3)nc2-c2ccc(OC)cc2)cc1 2.66% [at 11.5 µM, percent change from vehicle, -100% = no light], Cc1ccc(C)c(N2CCN(S(=O)(=O)c3cc(-c4cc(C)no4)ccc3C)CC2)c1 -28.8%, CSc1ccc(CCNC(=O)c2cc(C)nc3c2c(C)nn3-c2ccccc2)cc1 -17.7%, Cc1ccc(-n2nc(CO)c(C(=O)NCCCCc3ccccc3)n2)cc1C -11.9%, CC(=O)N1CCN(c2ccc(OCc3nn(C)c(C)c3-c3cccc4c(CCCOc5cc(C)c(Cl)c(C)c5)c(C(=O)O)n(Cc5cccnc5)c34)cc2)CC1 -21.8%, Cc1cc(C)c(NC(=O)Cn2nc(-c3ccncc3)ccc2=O)c(C)c1 -2.99%, CCCn1c(=O)n(-c2ccccc2Cl)c(=O)c2sc3ccccc3c21 -3.18%, O=C(CN1C(=O)C(c2ccc(F)cc2)=NC12CCCCCC2)Nc1ccccc1Cl -21.4%, CC1=Nc2cc(C(=O)NCc3ccccc3Cl)ccc2Sc2c(C)ccc(C)c21 -40.7%, COc1ccc(-c2ccc3c(N)c(C(=O)Nc4ccc(C(F)(F)F)cc4)sc3n2)cc1OC -45.4%, Cc1nc2c(-c3ccc(F)cc3)c(C)nn2c(C)c1CCC(=O)N1CCN(c2ccccc2)CC1 -13.6%, CCCCn1c(SCC(=O)c2ccccc2)nc2c(sc3ccccc32)c1=O 8.41%, CCN(C(=O)Cn1nnc2sc3c(c2c1=O)CCC(C(C)(C)C)C3)c1cccc(C)c1 (stereo not drawn) -21.1%, CCc1ccc(CNC(=O)c2nn(-c3ccc(C)cc3)c(=O)c3c2c2ccccc2n3C)cc1 -25%, CC(=O)c1ccc(N2CCN(C(=O)C3CCCN(S(=O)(=O)c4ccc(Br)s4)C3)CC2)cc1 (stereo not drawn) -36.7%, COc1cc(CCC(=O)NCc2ccc3c(c2)CCN3C(=O)c2ccccc2)cc(OC)c1OC -25.9%, Cc1ccc(-n2nc3ccc(NC(=O)COc4ccccc4C)cc3n2)cc1 16.9%, CCC1CN(S(=O)(=O)c2cc(-c3cc(C)no3)ccc2C)c2cc(C)ccc2O1 (stereo not drawn) -1.74%, CCCN(CCC)CCCNC(=O)C1CCN(S(=O)(=O)CC)CC1 1.7%, COc1ccc(C)c2sc(N(Cc3cccnc3)C(=O)C3CCCCC3)nc12 -21.3%, CCCCCOc1c(Cl)cc(C(=O)N(Cc2ccc(C)o2)C2CCS(=O)(=O)C2)cc1Cl (stereo not drawn) -27.2%, CCOC(=O)c1ccc(N2C(=O)c3n[nH]c(-c4ccco4)c3C2c2ccc(O)cc2)cc1 (stereo not drawn) -37.8%, CCCn1cc(S(=O)(=O)c2ccccc2)c(=O)c2cc(F)c(N3CCCC(C)C3)cc21 (stereo not drawn) -8.01%, COc1ccc(C)cc1NC(=O)c1c(C)oc2ncn(CC(C)C)c(=O)c12 -16.3%, Cc1ccc(CSCC(=O)N2CCN(c3ccccc3F)CC2)cc1 -13.4%, Cc1ccc(S(=O)(=O)CC(=O)Nc2sc3c(c2C#N)CCCC3)cc1 -16%, CCn1cc(CCC(=O)NCc2ccccc2OC)c2ccccc21 -5.99%, CC1=C(C(=O)Nc2ccccc2)C(c2cccnc2)n2nc(SCc3ccccc3Cl)nc2N1 (stereo not drawn) -7.22%, CC(C)c1c(C(=O)Nc2ccccc2)c(-c2ccccc2)c(-c2ccc(F)cc2)n1CC[C@H](O)C[C@@H](O)CC(=O)O -12.9%, Cc1cc(C2CCCCC2)n(O)c(=O)c1, CCOC(=O)Cn1c(=O)n(C2CCCCC2)c2nc(-c3cccc(F)c3)nc(C(N)=O)c21 -14%, CCN[C@@H]1C[C@H](N)[C@@H](OC2OC(CN)=CCC2N)[C@H](O)[C@H]1O[C@H]1OC[C@](C)(O)[C@H](NC)[C@H]1O (stereo partly drawn) -3.54% [at 0.74 µM, percent change from vehicle, -100% = no light], Cc1ccc(S(=O)(=O)c2cc3cc(C(=O)O)ccc3oc2=O)cc1 -27.6%, COc1cccc(Cn2c(CNC(=O)Cc3cccc(C)c3)nc3cccnc32)c1 -12.5%, Cc1ccccc1NC(=O)Cn1c(=O)oc2cc(Br)ccc21 -22.6%, COc1ccc(N(CC(=O)Nc2cccc(Cl)c2C)S(=O)(=O)c2c(C)nn(C)c2C)cc1 -24.1%, COc1ccc(C2=C(C)C(=NCCCN3CCN(c4cc(C)ccc4C)CC3)NS2(=O)=O)cc1 -35.6%, Cc1ccc(NC(=O)c2cccc3c2C(=O)N(C2CCCCC2)C3)c(C)c1 -4.38%, Cc1c(C)n(C)c2ccc(C(=O)NCCCN3CCCCC3C)cc12 (stereo not drawn) -10.1%, O=C(c1cc2c(s1)-c1ccccc1OC2)N1CCN(c2ccccc2F)CC1 -7.61%, CCCCN(CC)CCCNC(=O)c1nn(C)c2c1CS(=O)(=O)c1ccccc1-2 -1.12%, Cc1ccc(C)c(NC(=O)Cn2cc(C(=O)c3ccco3)c3ccccc32)c1 -26.6%, CC1=C(C(=O)OC(C)C)C(c2cccc([N+](=O)[O-])c2)C(C(=O)OC2CN(C(c3ccccc3)c3ccccc3)C2)=C(N)N1 (stereo not drawn) -62.2%, CCc1c(C)sc(NC(=O)c2cc(-c3cccc(Cl)c3)on2)c1C#N -5.66%, CCOC(=O)C1CCCN(c2cc(C)nc3c(-c4ccccc4OC)c(C)nn23)C1 (stereo not drawn) -30.5%, O=C(Nc1cccc(OCc2cc(=O)n3c4c(sc3n2)CCCC4)c1)c1ccc(F)cc1 5.68%, Cc1ccccc1-c1noc(CCC(=O)Nc2cccc(C)c2C)n1 -5.06%, Cc1ccc2nc(-c3cc(NC(=O)/C=C/c4ccccc4)ccc3Cl)oc2c1 3.89%, O=C(c1cccc(Cl)c1)N1CCN(CCc2ccncc2)CC1 -7.4%, COc1cc(Cl)c(C)cc1NC(=O)c1cn(C2CCCC2)c(=O)c2c1c1ccccc1n2C -8.19%, COc1ccc(C(=O)Nc2ccc3nc(N4CCC(C)CC4)cc(C)c3c2)cc1 -12.7%, CCOc1ccc(-c2nnc(SCC(=O)NCCc3ccc(OC)c(OC)c3)nc2-c2ccc(OCC)cc2)cc1 3.28%, CCOCCCNC(=O)C(Cc1ccccc1)NS(=O)(=O)c1ccc2c(c1)c(=O)n(C)c(=O)n2C (stereo not drawn) -14.7%, COc1cc(C(=O)NS(=O)(=O)c2ccccc2C)ccc1Cc1cn(C)c2ccc(NC(=O)OC3CCCC3)cc12 -30.6%, COc1ccc(Cl)cc1-n1c(/C=C/c2cccc3ccccc23)nc2ccccc2c1=O -16.8%, COc1ccc(-c2nc(CSc3nncn4c3cc3occc34)c(C)o2)cc1 -25.3%, CCOC(=O)c1c(NC(=O)COc2cc(C)ccc2C(C)C)sc(C)c1C -19.7%, CCOc1cccc(C(c2c(C)n(C)n(-c3ccccc3)c2=O)c2c(C)n(C)n(-c3ccccc3)c2=O)c1OC 3.74%, CCOc1ccc(NC(=O)c2nn(C)c3c2CS(=O)(=O)c2ccccc2-3)cc1 -6.32%, CCOc1ccccc1NC(=O)Cn1c(=O)n(-c2ccc(F)cc2)c(=O)c2sc3ccccc3c21 -3.94%, COc1ccc(CCNC(=O)CCCn2c(=O)c3ccccc3n(CC(=O)Nc3cc(Cl)ccc3C)c2=O)cc1OC -46.1%
